From a collection of fitness landscapes (doi:10.1016/j.celrep.2020.107928)
Whole data set: some 81,000 sequences, median “one-hybrid fitness for binding parS DNA” near -0.17, cut for the highest 2% near 0.51. This is one part of the list.

B1: Caulobacter ParB omega fusion; a variant is named by its letters at X, in order, B8GW30 (parent)
chain: MESVVVGEPGMSEGRRGLGRGLSALLGEVDAAPAQAPGEQLGGSREAPIEILQRNPDQPRRTFREEDLEDLSNSIREKGVLQPILVRPSPDTAGEYQIVAGERAWRAAQRAGLKTVPIMVRELDDLAVLEIGIIENVQRADLNVLEEALSYKVLMEKFERTQENIAQTIGKSXSHVANXMRLLXLPDEVQSYLVSGELTAXHARAIAAAADPVALAKQIIEGGLSVRETEALARKAPNLSAGKSKGGRPPRVKDTDTQALESDLSSVLGLDVSIDHRGSTGTLTITYATLEQLDDLCNRLTRGI

Variants of: B1
Assay: one-hybrid fitness for binding parS DNA (scaled: cognate 1, non-cognate 0); higher = stronger binding
Conditions: with parS DNA site
In short: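 In E. coli USO, a HIS3 reporter with its site placed 19 bp from the promoter was used to select Caulobacter ParB variants randomised at four specificity codons. Growth lasted 48 hours at 37°C on histidine-free M9 containing 0.1 mM IPTG and 5 mM 3-AT. Fitness was taken as the log change in variant-to-wild-type read ratio from Illumina sequencing of pre- and post-selection plasmids, rescaled between the non-cognate and cognate sites.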

Variant | one-hybrid fitness for binding parS DNA
QCNL | ≤ 0.2
AVFC | ≤ 0.2
AIHF | ≤ 0.2
TPDT | ≤ 0.2
YSVA | ≤ 0.2
RETY | ≤ 0.2
RVTS | 0.972
QRLR | ≤ 0.2
RHGM | 0.232
SVDR | ≤ 0.2
VYNL | ≤ 0.2
RSPR | ≤ 0.2
WGSW | ≤ 0.2
REIT | ≤ 0.2
TYTT | ≤ 0.2
IEHY | ≤ 0.2
DTDF | ≤ 0.2
NQHG | ≤ 0.2
PESG | ≤ 0.2
EECT | ≤ 0.2
YRFL | ≤ 0.2
SPEC | ≤ 0.2
SYFR | ≤ 0.2
RTTA | 0.612

Variant | one-hybrid fitness for binding parS DNA
WVSC | ≤ 0.2
CNRD | ≤ 0.2
RHKE | ≤ 0.2
RLMW | 0.247
RFYM | 0.265
SQWR | ≤ 0.2
RSVC | 0.775
CPRR | ≤ 0.2
EAPL | ≤ 0.2
GARD | ≤ 0.2
NVTT | ≤ 0.2
PRER | ≤ 0.2
EVII | ≤ 0.2
LFAP | ≤ 0.2
GEST | ≤ 0.2
QHHA | ≤ 0.2
AIVQ | ≤ 0.2
QDPY | ≤ 0.2
HTAG | ≤ 0.2
FVIV | ≤ 0.2
TKHG | ≤ 0.2
LCHC | ≤ 0.2
AITR | ≤ 0.2
RFAN | 0.372

Variant | one-hybrid fitness for binding parS DNA
MLVG | ≤ 0.2
CPTF | ≤ 0.2
TRQC | ≤ 0.2
RPDS | ≤ 0.2
AIGG | ≤ 0.2
MNRR | ≤ 0.2
AENK | ≤ 0.2
NRPN | ≤ 0.2
FKQT | ≤ 0.2
GRGF | ≤ 0.2
MYLV | ≤ 0.2
GSGF | ≤ 0.2
PESN | ≤ 0.2
RIQN | 0.449
PHSD | ≤ 0.2
VYAG | ≤ 0.2
VAGV | ≤ 0.2
NKNR | ≤ 0.2
AYLF | ≤ 0.2
ICVR | ≤ 0.2
FLDG | ≤ 0.2
AIPP | ≤ 0.2
SPTG | ≤ 0.2
PIKC | ≤ 0.2

Variant | one-hybrid fitness for binding parS DNA
WRSQ | ≤ 0.2
AIGC | ≤ 0.2
KQPF | ≤ 0.2
DRRS | ≤ 0.2
GYHC | ≤ 0.2
TSFT | ≤ 0.2
NTMV | ≤ 0.2
KHLS | ≤ 0.2
YHAC | ≤ 0.2
SVPT | ≤ 0.2
GMHS | ≤ 0.2
NPEE | ≤ 0.2
CTFG | ≤ 0.2
NCAG | ≤ 0.2
RVLE | ≤ 0.2
GRMT | ≤ 0.2
DLTI | ≤ 0.2
THYL | ≤ 0.2
VTEG | ≤ 0.2
EDQT | ≤ 0.2
NPQC | ≤ 0.2
QKRD | ≤ 0.2
TIIK | ≤ 0.2
VPPP | ≤ 0.2

Variant | one-hybrid fitness for binding parS DNA
TCIM | ≤ 0.2
VNTW | ≤ 0.2
CVLS | ≤ 0.2
LSYG | ≤ 0.2
TQPM | ≤ 0.2
NLGP | ≤ 0.2
ALVS | ≤ 0.2
CFSA | ≤ 0.2
ALNV | ≤ 0.2
KWQA | ≤ 0.2
CSKC | ≤ 0.2
SVVR | ≤ 0.2
WVRY | ≤ 0.2
SHWG | ≤ 0.2
QITR | ≤ 0.2
GKTT | ≤ 0.2
RQGA | 0.563
QMKI | ≤ 0.2
AEYG | ≤ 0.2
NVGL | ≤ 0.2
ALIG | ≤ 0.2
FGIR | ≤ 0.2
RCTF | 0.223
WMAW | ≤ 0.2

Variant | one-hybrid fitness for binding parS DNA
MLTT | ≤ 0.2
FTYK | ≤ 0.2
THSM | ≤ 0.2
VADT | ≤ 0.2
YMTG | ≤ 0.2
VLGA | ≤ 0.2
FHSG | ≤ 0.2
ACVS | ≤ 0.2
LPLF | ≤ 0.2
GSIR | ≤ 0.2
PGHV | ≤ 0.2
PGTY | ≤ 0.2
DQPC | ≤ 0.2
YTVL | ≤ 0.2
CLAG | ≤ 0.2
PIPV | ≤ 0.2
KPDT | ≤ 0.2
THMG | ≤ 0.2
ERLV | ≤ 0.2
CICC | ≤ 0.2
LAHC | ≤ 0.2
YMHS | ≤ 0.2
HNSL | ≤ 0.2
CRVH | ≤ 0.2

Variant | one-hybrid fitness for binding parS DNA
EMYT | ≤ 0.2
KRNH | ≤ 0.2
IKKG | ≤ 0.2
GALR | ≤ 0.2
PRRW | ≤ 0.2
SKTI | ≤ 0.2
LAMV | ≤ 0.2
SNAA | ≤ 0.2
EQSV | ≤ 0.2
NNWM | ≤ 0.2
IQLG | ≤ 0.2
NLST | ≤ 0.2
GHLP | ≤ 0.2
QQEA | ≤ 0.2
LLER | ≤ 0.2
RALM | 0.34
KAPI | ≤ 0.2
RQMI | ≤ 0.2
STRW | ≤ 0.2
TVRT | ≤ 0.2
AMTL | ≤ 0.2
SFWT | ≤ 0.2
PHMC | ≤ 0.2
YYRQ | ≤ 0.2

Variant | one-hybrid fitness for binding parS DNA
NHQV | ≤ 0.2
FRDR | ≤ 0.2
HCKS | ≤ 0.2
YTTS | ≤ 0.2
WSHI | ≤ 0.2
FGES | ≤ 0.2
DSMW | ≤ 0.2
ESGS | ≤ 0.2
KWSG | ≤ 0.2
FTDR | ≤ 0.2
TPRC | ≤ 0.2
HKPK | ≤ 0.2
RDRC | ≤ 0.2
CDHC | ≤ 0.2
KLTG | ≤ 0.2
AVPM | ≤ 0.2
HTWS | ≤ 0.2
GMII | ≤ 0.2
ELFS | ≤ 0.2
NCIY | ≤ 0.2
AGIY | ≤ 0.2
TPPL | ≤ 0.2
LYEY | ≤ 0.2
YSVD | ≤ 0.2

Variant | one-hybrid fitness for binding parS DNA
NRNM | ≤ 0.2
AIRK | ≤ 0.2
IDHA | ≤ 0.2
CATC | ≤ 0.2
GKDV | ≤ 0.2
TPRD | ≤ 0.2
LIID | ≤ 0.2
LLQK | ≤ 0.2
TGLF | ≤ 0.2
QPNV | ≤ 0.2
RWNR | ≤ 0.2
TRRN | ≤ 0.2
CARW | ≤ 0.2
RVYT | 0.93
GNQS | ≤ 0.2
STKT | ≤ 0.2
LLLV | ≤ 0.2
FYYI | ≤ 0.2
HFQG | ≤ 0.2
VYQD | ≤ 0.2
PAEK | ≤ 0.2
QSIP | ≤ 0.2
YKNV | ≤ 0.2
CIAG | ≤ 0.2

Variant | one-hybrid fitness for binding parS DNA
THGK | ≤ 0.2
RTSH | ≤ 0.2
DSPQ | ≤ 0.2
TIAC | ≤ 0.2
RIIH | 0.233
VTKE | ≤ 0.2
CGAG | ≤ 0.2
PRQP | ≤ 0.2
WNWT | ≤ 0.2
DYSL | ≤ 0.2
TKHI | ≤ 0.2
LPRQ | ≤ 0.2
ILRV | ≤ 0.2
LGHM | ≤ 0.2
LYKY | ≤ 0.2
VCKH | ≤ 0.2
ELMS | ≤ 0.2
KRQN | ≤ 0.2
SWSD | ≤ 0.2
GNKW | ≤ 0.2
ATPK | ≤ 0.2
DRWG | ≤ 0.2
LNQG | ≤ 0.2
KSVL | ≤ 0.2

Variant | one-hybrid fitness for binding parS DNA
LRSF | ≤ 0.2
HRGC | 0.315
ITKL | ≤ 0.2
CHPQ | ≤ 0.2
ACGD | ≤ 0.2
KSTI | ≤ 0.2
RLQM | 0.352
EPLD | ≤ 0.2
VTGW | ≤ 0.2
CHTT | ≤ 0.2
TWCC | ≤ 0.2
NDRV | ≤ 0.2
EEYR | ≤ 0.2
EWTK | ≤ 0.2
NTYE | ≤ 0.2
VVTG | ≤ 0.2
PGAN | ≤ 0.2
NING | ≤ 0.2
FWPN | ≤ 0.2
AEVG | ≤ 0.2
DQTN | ≤ 0.2
FMCG | ≤ 0.2
DPPS | ≤ 0.2
LQSL | ≤ 0.2

Variant | one-hybrid fitness for binding parS DNA
TRKM | ≤ 0.2
SGEC | ≤ 0.2
AMVS | ≤ 0.2
LLTI | ≤ 0.2
MDNY | ≤ 0.2
EPQT | ≤ 0.2
ECLK | ≤ 0.2
QIYA | ≤ 0.2
SEGT | ≤ 0.2
DWTC | ≤ 0.2
RGWS | 0.573
KDNR | ≤ 0.2
HRGR | ≤ 0.2
PCCS | ≤ 0.2
FTRR | ≤ 0.2
PNPY | ≤ 0.2
CNLP | ≤ 0.2
LNTT | ≤ 0.2
KASM | ≤ 0.2
RSVM | 0.265
VAGC | ≤ 0.2
GWSR | ≤ 0.2
GIGG | ≤ 0.2
PIPQ | ≤ 0.2

Variant | one-hybrid fitness for binding parS DNA
MMTL | ≤ 0.2
QIIM | ≤ 0.2
WHRF | ≤ 0.2
IPLM | ≤ 0.2
PANF | ≤ 0.2
LVTM | ≤ 0.2
CLSQ | ≤ 0.2
LCSF | ≤ 0.2
VDNS | ≤ 0.2
CVLL | ≤ 0.2
DTYC | ≤ 0.2
TYKF | ≤ 0.2
FASM | ≤ 0.2
WPLY | ≤ 0.2
LPWC | ≤ 0.2
TGKD | ≤ 0.2
LTMV | ≤ 0.2
VKIV | ≤ 0.2
